# Measured values reported in PubChem BioAssay AID686971 (National Center for Advancing Translational Sciences (NCATS), 2013).
# About 7,500 (2.1%) of roughly 360,000 compounds were called active. The shares of active, inactive and inconclusive entries below differ from those in the screen. Calls follow the shape of the dose curve; as a rule, active = well fitted cell-killing curve with a large enough effect; inconclusive = small, poorly fitted or top-dose-only effect, or effect the other way, or another doubt; inactive = no such curve, though single readings can be large or run the other way. Potencies of inconclusive entries are left out as doubtful fits.
# Assay: qHTS for induction of synthetic lethality in tumor cells producing 2HG: qHTS for the HT-1080-IDH1KD cell line;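 as to activity, negative = toxicity: 0% = DMSO wells and -100% = cell-free medium wells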
# Settings: HT-1080 IDH1 knockdown viability, ATP luminescence, 48 h; activity, negative = toxicity: at 46.1 µM (top of the series) unless noted
# Method in brief: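 HT-1080-IDH1KD cells (IDH1 knocked down), 750/well in RPMI with 5% FBS, treated with compound 48 h at 37 degrees C. Viability by CellTiter-Glo luminescence, normalised to DMSO and no-cell wells; concentration-response curves classed.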
# Potency is read from the fitted curve at half-maximal effect; tags tell the direction and shape of the fitted curve.
SMILES,"activity, negative = toxicity",Potency
CCCCCCn1c(O)c(C=NCCN2CCOCC2)c(=O)[nH]c1=O,inactive: -16.9%,
Cc1cccc(OP(=O)(Oc2ccccc2)OC(c2ccccc2)C(F)(F)F)c1 (stereo not drawn),inactive: 4.5%,
C=CCN1CCc2cccc3c2[C@H]1Cc1ccc(O)c(O)c1-3,,"inconclusive [cytotoxic, single point]"
O=C(NCC1=C(c2ccc3ccccc3c2)C[C@@H]2CC[C@H]1N2Cc1ccco1)c1ccc([N+](=O)[O-])cc1,,"inconclusive [cytotoxic, single point]"
COC1/C=C/C=C(\C)Cc2cc(O)c(Cl)c(c2)N(C)C(=O)CC(OC(=O)C(C)C)C2(C)OC2C(C)C2CC1(O)NC(=O)O2 (stereo not drawn),,"inconclusive [cytotoxic, full curve, poor fit]"
CC(Cc1ccccc1Sc1ccccc1O)N(C)C (stereo not drawn),,"inconclusive [cytotoxic, partial curve]"
COc1cc(Cn2c(N)c(C(=O)NCc3ccco3)c3nc4ccccc4nc32)cc(OC)c1OC,,active: 8.91 µM
CC(=NNC(=S)N1CC2CCC(CC2)C1)c1nccs1,,"inconclusive [cytotoxic, partial curve]"
CC(=O)N1Cc2cnnn2-c2ccccc2C1C#N (stereo not drawn),inactive: 12.4%,
O=C(NCc1ccc(C(=O)N2CCC3(CC2)OCCO3)cc1)c1cccc(Br)c1,inactive: 11%,
COc1cc(C2c3cc4c(cc3CC3COC(=O)C32)OCO4)cc(OC)c1O (stereo not drawn),,"inconclusive [cytotoxic, full curve]"
Clc1ccc(C2N3CCCN23)c(Cl)c1 (stereo not drawn),inactive: 12.5%,
Cc1c(NS(=O)(=O)c2ccccc2)ccc([N+](=O)[O-])c1Cl,,"inconclusive [cytotoxic, full curve]"
Nc1c(C(=O)NCCCc2ccccc2)c2nc3ccccc3nc2n1Cc1cccs1,inactive: -26.5%,
O=c1[nH]c2ccccc2n1C1CCN(C(c2ccccc2)c2nnnn2-c2ccc3c(c2)OCCO3)CC1 (stereo not drawn),,"inconclusive [cytotoxic, partial curve]"
C[C@H]1C/C=C/[C@H]2[C@H](O)[C@H](C)[C@@](C)(O)[C@H]3[C@H](Cc4ccccc4)NC(=O)[C@]32[C@H](O)/C=C/[C@](C)(O)C1,,"inconclusive [cytotoxic, single point]"
C=CCn1c(O)c(C(C)=NCc2ccc3c(c2)OCO3)c(=O)[nH]c1=O,,"inconclusive [cytotoxic, partial curve]"
O=P(O)(O)Cc1c(Cl)cccc1Cl,inconclusive: 30.9%,
CCOC(=O)c1ccc(N=C(C)c2c(O)[nH]c(=O)[nH]c2=O)cc1,,"inconclusive [cytotoxic, partial curve]"
Cc1cnn(C2CCN(C)CC2)c1N,inactive: 5.5%,
OCC1OC(n2cnc3cc(Cl)c(Cl)cc32)C(O)C1O (stereo not drawn),,"inconclusive [cytotoxic, single point]"
CC(C)CCNC(=O)c1c(N)n(CC2CCCO2)c2nc3ccccc3nc12 (stereo not drawn),,"inconclusive [cytotoxic, partial curve]"
CN(C)C1(CNC(=O)Nc2ccc(Cl)c(Cl)c2)CCCCC1,,"inconclusive [cytotoxic, single point]"

SMILES,"activity, negative = toxicity",Potency
Cc1cc(C)cc(N2C(=O)NC(=O)/C(=C\c3cccn3-c3ccc(Cl)cc3)C2=O)c1,,"inconclusive [cytotoxic, single point]"
CC[C@H](OC(C)=O)C(C[C@H](C)N(C)C)(c1ccccc1)c1ccccc1,,"inconclusive [cytotoxic, single point]"
CSc1ccccc1NC(=O)CN(c1cccc(C)c1)S(C)(=O)=O,,"inconclusive [cytotoxic, single point]"
COc1cc([C@@H]2c3cc4c(cc3[C@@H](OC)[C@H]3COC(=O)[C@H]23)OCO4)cc(OC)c1O,,"inconclusive [cytotoxic, full curve]"
C(=C\c1ccncc1)/c1ccncc1,,"inconclusive [rising, single point]"
O=c1[nH]c(=S)n(C2CC2)c(O)c1/C=N/Nc1ccccc1,,active: 2.31 µM
CC12CCC(O)CC1CCC1C2CCC2(C)C(C3=CC(=O)OC3)C(O)CC12O (stereo not drawn),,active: 1.64 µM
COc1cc2cc(c1Cl)N(C)C(=O)CC(OC(=O)C(C)N(C)C(C)=O)C1(C)OC1C(C)C1CC(O)(NC(=O)O1)C(OC)C=CC=C(C)C2 (stereo not drawn),,"inconclusive [cytotoxic, partial curve, poor fit]"
CCCC/C(C)=C/[C@@H](NP(=O)(c1ccccc1)c1ccccc1)c1ccccc1,,"inconclusive [cytotoxic, single point]"
Cc1ccc(OCC(=O)N2CCN(Cc3ccc([N+](=O)[O-])cc3)CC2)cc1,,"inconclusive [cytotoxic, single point]"
COc1cc2nc(N3CCN(C(=O)[C@H]4COc5ccccc5O4)CC3)nc(N)c2cc1OC,inactive: -10.5%,
CNC(=O)Nc1ccc(C(=O)N/N=C\C23CC[C@@H](O)CC2(O)CC[C@@H]2[C@@H]3CCC3(C)C(C4=CC(=O)OC4)CCC23O)cc1 (stereo partly drawn),,"inconclusive [cytotoxic, single point]"
CCN(C(=O)COC(=O)Cc1ccccc1)c1c(N)n(Cc2ccccc2)c(=O)[nH]c1=O,inactive: 3.68%,
C=C1C(=O)O[C@@H]2C[C@@H](C)[C@@H]3C=CC(=O)[C@@]3(C)[C@@H](O)[C@H]12,,active: 0.58 µM
N#CC1c2ccccc2-n2nncc2CN1Cc1cc(Cl)cc(Cl)c1 (stereo not drawn),,active: 6.51 µM
CCCCCCn1c(=O)c(C(=O)Nc2nc(CC(=O)OCC)cs2)c(O)c2ccccc21,inactive: -5.53%,
S=P(NCCNP(=S)(N1CC1)N1CC1)(N1CC1)N1CC1,inactive: -3.44%,
OCC1CO1 (stereo not drawn),inactive: 4.18%,
c1ccc2c(c1)cc1ccc3cccc4ccc2c1c34,inactive: -4.82%,
COc1cc(CNCCc2ccc3c(c2)OCO3)cc(OC)c1OC,inactive: -8.55%,
COc1cc(-n2c(=S)[nH]c3ccccc3c2=O)c(Cl)cc1Cl,,"inconclusive [cytotoxic, single point]"
O=[N+]([O-])c1ccc(Cl)c(Cl)c1Cl,inactive: 1.18%,
CCOc1ccc(-c2cc(C)[n+](CCO)c(-c3ccc(OCC)cc3)c2)cc1,,"inconclusive [cytotoxic, partial curve]"

SMILES,"activity, negative = toxicity",Potency
COC(=O)C1=C(c2cccc(OC)c2OC)C[C@@H]2CC[C@H]1N2C(=O)NC1CCCCC1,inactive: 12%,
CN(C)[C@@H]1C(=O)C(C(N)=O)=C(O)[C@@]2(O)C(=O)C3=C(O)c4c(O)ccc(Cl)c4[C@@](C)(O)C3C[C@@H]12 (stereo partly drawn),,"inconclusive [cytotoxic, partial curve, poor fit]"
BrCC1C[n+]2c(SCc3ccccc3)nc3sc4c(c3c2O1)CCCC4 (stereo not drawn),inconclusive: -12.4%,
COc1ccccc1CN1CCCC(C(=O)c2ccccc2SC)C1 (stereo not drawn),,"inconclusive [cytotoxic, single point]"
O=P(Nc1ccccc1)(Nc1ccccc1)Oc1cccc(Cl)c1,,"inconclusive [cytotoxic, single point]"
CCC(=NCc1ccc2c(c1)OCO2)c1c(O)n(C2CCCCC2)c(=O)[nH]c1=O,inconclusive: -33.9% [cytotoxic],
COC(=O)c1cc(C(O)(C(=O)OC)C(F)(F)F)c(/N=C/N(C)C)s1 (stereo not drawn),inactive: 14%,
C=C1C(C)C2C(Cc3ccccc3)NC(=O)C23C(OC(C)=O)C=CC(C)(O)CC(C)CC=CC3C1O (stereo not drawn),,"inconclusive [cytotoxic, full curve]"
CCNC(=S)N(C)CCc1cc2c(c(OC)c1C=C1C(=O)N(C)C(=O)N(C)C1=O)OCO2,inconclusive: 32.8%,
CCOc1cccc(CN2CCN(c3cccc(C(F)(F)F)c3)CC2)c1O,,"inconclusive [cytotoxic, single point]"
Cc1ccc2nc(-c3ccc(CN4CCC(n5c(=O)[nH]c6ccccc65)CC4)cc3)c(-c3ccccc3)nc2c1,,"inconclusive [cytotoxic, single point]"
CCOC(=O)[C@]12Cc3cc(C)ccc3[C@H]1N(CCC(=O)OC)C(=O)c1cc(OC)ccc12,,active: 18.4 µM
C#C[C@@]1(O)CCC2C3CCC4=C/C(=N/OCC(=O)NC(C(=O)O)C(C)O)CC[C@]4(C)C3CC[C@@]21C (stereo partly drawn),,"inconclusive [rising, single point]"
Fc1ccccc1CCNCc1cccc2ccccc12,,"inconclusive [cytotoxic, single point]"
Cc1ccc(N=Nc2cc(C)ccc2N)cc1,,"inconclusive [cytotoxic, single point]"
COC(=O)CN(CCCl)P1(=O)OCCCN1CCCl (stereo not drawn),,"inconclusive [rising, partial curve]"
CC(N)Cc1cn(Cc2ccccc2)c2ccccc12 (stereo not drawn),,"inconclusive [cytotoxic, single point]"
COC(=O)C1=C(c2cc3ccccc3s2)C[C@@H]2CC[C@H]1N2C(=O)N1CCCCC1,,active: 8.2 µM
CCCCCCC(=O)N/N=C/c1c(O)n(C(C)CC)c(=S)[nH]c1=O (stereo not drawn),,active: 14.6 µM
CC(C)(O)/C=C/C(=O)C(C)(O)C1C(O)CC2(C)C3CC=C4C(C=C(O)C(=O)C4(C)C)C3(C)C(=O)CC12C (stereo not drawn),,active: 0.146 µM
Cc1ccc(NC(=O)COc2ccc(/C=N/NC(=O)CSCc3ccccc3)cc2)cc1,,"inconclusive [cytotoxic, single point]"
O=C(O)c1cccc2c1NC(c1cccc([N+](=O)[O-])c1)C1CC(Sc3ccccc3[N+](=O)[O-])C(Cl)C21 (stereo not drawn),,"inconclusive [cytotoxic, partial curve]"
